Test results taken from the supplement of paper PMC9046079.
± gives the standard deviation of the averaged measurements. This is one part of the list.

Experiments:
[1] = system: murine small intestinal organoids (ENR+CD Paneth differentiation); experiment: cellular ATP (CellTiter-Glo 3D) relative to plate median (log10 fold change); higher = more viable cells; details: 6 d
[2] = system: murine small intestinal organoids (ENR+CD Paneth differentiation); experiment: carbachol-stimulated secreted lysozyme activity relative to plate median (log10 fold change); higher = more Paneth cell lysozyme secretion; details: 6 d, carbachol 10 µM
[3] = system: murine small intestinal organoids (ENR+CD Paneth differentiation); experiment: basal (non-stimulated) secreted lysozyme activity relative to plate median (log10 fold change); higher = more Paneth cell lysozyme secretion; details: 6 d
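Throughout, for basal (non-stimulated) secreted lysozyme activity relative to plate median: ISC-enriched organoid precursors grown as 2.5D pseudo-monolayer on Matrigel, compound given on day 0 and day 3, plate values LOESS-normalized before median fold change, three murine donors.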
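Throughout, for cellular ATP (CellTiter-Glo 3D) relative to plate median: 2.5D pseudo-monolayer culture of ISC-enriched organoids partly embedded atop Matrigel, compound added on day 0 and again on day 3, per-plate LOESS correction before median fold change.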

SMILES	cellular ATP (log10) ([1]; 0.08 µM)	cellular ATP (log10) ([1]; 0.4 µM)	cellular ATP (log10) ([1]; 2 µM)	cellular ATP (log10) ([1]; 10 µM)	carbachol-stimulated secreted lysozyme activity (log10) ([2]; 0.08 µM)	carbachol-stimulated secreted lysozyme activity (log10) ([2]; 0.4 µM)	carbachol-stimulated secreted lysozyme activity (log10) ([2]; 2 µM)	carbachol-stimulated secreted lysozyme activity (log10) ([2]; 10 µM)	basal (log10) ([3]; 0.08 µM)	basal (log10) ([3]; 0.4 µM)	basal (log10) ([3]; 2 µM)	basal (log10) ([3]; 10 µM)
C[C@H]1COC2=C1C(=O)C(=O)c1c2ccc2c1CCCC2(C)C [Cryptotanshinone]	0.199 ± 0.15	-0.0273 ± 0.49	-0.184 ± 0.23	-0.541 ± 0.047	0.169 ± 0.094	-0.19 ± 0.4	-0.4751 ± 0.0023	-0.495 ± 0.048	0.143 ± 0.065	-0.12 ± 0.25	-0.182 ± 0.27	-0.288 ± 0.11
Cc1cc(OCCCS(C)(=O)=O)cc(C)c1-c1cccc(COc2ccc3c(c2)OC[C@H]3CC(=O)O)c1	0.234 ± 0.27	0.0366 ± 0.41	0.11 ± 0.21	-0.135 ± 0.45	0.263 ± 0.011	0.019 ± 0.047	0.0107 ± 0.13	-0.189 ± 0.17	0.0917 ± 0.09	0.0171 ± 0.024	-0.0352 ± 0.087	-0.14 ± 0.12
O=C(O)Cn1nnc(-c2cc(N3CCC(Oc4cc(F)ccc4Br)CC3)no2)n1	0.156 ± 0.18	-0.113 ± 0.35	-0.0213 ± 0.23	-0.263 ± 0.086	0.0965 ± 0.076	0.284 ± 0.28	-0.104 ± 0.077	-0.169 ± 0.031	0.023 ± 0.078	0.0314 ± 0.1	-0.0362 ± 0.047	-0.077 ± 0.039
Cn1c(N2CCCCS2(=O)=O)nc(C(=O)NCc2ccc(F)cc2)c(O)c1=O	0.318 ± 0.15	0.238 ± 0.11	0.279 ± 0.16	0.138 ± 0.12	0.142 ± 0.018	0.21 ± 0.21	0.035 ± 0.05	0.0902 ± 0.079	0.107 ± 0.07	0.135 ± 0.065	0.11 ± 0.064	0.0705 ± 0.1
Cc1c(Cc2ccc3ccccc3n2)c2cc(F)ccc2n1CC(=O)O	0.077 ± 0.14	-0.0647 ± 0.2	0.0878 ± 0.2	0.0885 ± 0.12	0.0416 ± 0.015	0.215 ± 0.21	0.136 ± 0.067	0.0606 ± 0.098	0.0477 ± 0.045	0.0529 ± 0.038	0.0583 ± 0.023	0.033 ± 0.053
C[C@H]1COC2(CCN(c3nc(=O)c4cc(C(F)(F)F)cc([N+](=O)[O-])c4s3)CC2)O1 (racemic) [BTZ043 Racemate]	0.497 ± 0.34	0.545 ± 0.4	0.0628 ± 0.21	0.327 ± 0.24	0.229 ± 0.21	0.212 ± 0.17	0.00836 ± 0.002	-0.00185 ± 0.16	0.131 ± 0.088	0.186 ± 0.14	0.0891 ± 0.055	0.1 ± 0.15
CC(C)CCNC(=O)[C@H](CC(C)C)NC(=O)[C@H]1O[C@@H]1C(=O)O [Loxistatin Acid (E-64C)]	0.0862 ± 0.23	0.156 ± 0.23	0.0801 ± 0.29	0.094 ± 0.18	0.098 ± 0.055	0.0284 ± 0.11	-0.052 ± 0.0049	-0.00288 ± 0.065	0.147 ± 0.14	0.0613 ± 0.13	0.0554 ± 0.076	0.00356 ± 0.072
CC1=C(/C=C/C(C)=C/C=C/C(C)=C\C(=O)O)C(C)(C)CCC1 [Isotretinoin]	0.411 ± 0.19	0.404 ± 0.26	0.253 ± 0.15	0.139 ± 0.3	0.136 ± 0.058	0.0825 ± 0.095	0.081 ± 0.0075	0.0859 ± 0.082	0.125 ± 0.11	0.0467 ± 0.092	0.0664 ± 0.1	0.0824 ± 0.059
COc1ccccc1S(=O)(=O)Nc1ccc2c(c1)CN(C)C(=O)N2	0.142 ± 0.17	0.39 ± 0.28	0.322 ± 0.32	-0.389 ± 0.43	0.106 ± 0.055	0.138 ± 0.31	-0.153 ± 0.084	-0.275 ± 0.026	0.0617 ± 0.059	0.0794 ± 0.2	-0.0979 ± 0.06	-0.0658 ± 0.062
C[C@H](Cn1cnc2c(N)ncnc21)OCP(=O)(O)O [Tenofovir]	-0.0554 ± 0.21	-0.16 ± 0.2	-0.19 ± 0.03	-0.248 ± 0.36	-0.0732 ± 0.29	0.189 ± 0.44	0.086 ± 0.4	-0.183 ± 0.27	-0.0847 ± 0.16	-0.0488 ± 0.079	-0.0581 ± 0.06	-0.134 ± 0.12
CC(C)c1onc(-c2c(Cl)cccc2Cl)c1COc1ccc(/C=C/c2cccc(C(=O)O)c2)c(Cl)c1	-0.134 ± 0.095	0.14 ± 0.083	-0.145 ± 0.23	-0.157 ± 0.095	0.0217 ± 0.12	0.141 ± 0.089	0.0435 ± 0.059	-0.06 ± 0.071	0.17 ± 0.18	-0.0223 ± 0.018	0.0225 ± 0.076	-0.0593 ± 0.042
O=C(c1cncc(Br)c1)N1CCC(N2CCCC2)CC1	-0.0532 ± 0.22	0.047 ± 0.082	-0.263 ± 0.7	0.0833 ± 0.067	0.105 ± 0.13	0.061 ± 0.13	0.0667 ± 0.09	-0.0274 ± 0.11	0.0587 ± 0.14	0.00788 ± 0.081	-0.00533 ± 0.077	0.0227 ± 0.076
O=C(c1ccc(Nc2nccc(-c3cc4ccccc4s3)n2)cc1)N1CCC(N2CCCC2)CC1 [IKK-16 (IKK Inhibitor VII)]	0.0584 ± 0.29	-0.0509 ± 0.032	-0.431 ± 0.33	-0.95 ± 0.43	0.0335 ± 0.043	0.017 ± 0.042	-0.116 ± 0.17	-0.499 ± 0.016	0.104 ± 0.067	0.0202 ± 0.016	-0.0813 ± 0.11	-0.291 ± 0.079
CNC(=O)[C@H](Cc1ccccc1)NC(=O)[C@H](CC(C)C)[C@H](CSc1cccs1)C(=O)NO [Batimastat (BB-94)]	0.0352 ± 0.045	-0.0946 ± 0.17	-0.049 ± 0.14	-0.283 ± 0.21	-0.0112 ± 0.089	0.00423 ± 0.037	0.0608 ± 0.0089	-0.162 ± 0.054	-0.00283 ± 0.05	0.00477 ± 0.09	0.0813 ± 0.078	-0.0746 ± 0.11
Cc1ccccc1C(C(=O)NC1CCCCC1)N(C(=O)Cn1ccnc1C)c1cccc(F)c1 (stereo unspecified)	0.309 ± 0.28	0.154 ± 0.26	0.281 ± 0.18	0.336 ± 0.28	0.0413 ± 0.054	0.205 ± 0.23	0.0259 ± 0.04	-0.0395 ± 0.015	0.0554 ± 0.1	0.0416 ± 0.033	0.0393 ± 0.061	-0.00739 ± 0.054
CC(C)n1c(/C=C/C(O)CC(O)CC(=O)O)c(-c2ccc(F)cc2)c2ccccc21 (stereo unspecified) [Fluvastatin Sodium]	-0.161 ± 0.17	-0.482 ± 0.16	-1.11 ± 0.18	-1.76 ± 0.76	0.0412 ± 0.029	-0.222 ± 0.066	-0.344 ± 0.1	-0.343 ± 0.0039	0.112 ± 0.14	-0.146 ± 0.085	-0.203 ± 0.11	-0.159 ± 0.093
COc1cc(Nc2c(C#N)cnc3cc(OCCCN4CCN(C)CC4)c(OC)cc23)c(Cl)cc1Cl [Bosutinib (SKI-606)]	0.628 ± 0.15	0.302 ± 0.22	-0.169 ± 0.27	-0.668 ± 0.34	0.308 ± 0.04	0.263 ± 0.0034	-0.117 ± 0.05	-0.287 ± 0.043	0.213 ± 0.052	0.13 ± 0.11	-0.0488 ± 0.05	-0.115 ± 0.081
O=C(NCc1cccc(O)c1)Nc1nc(-c2ccncc2)cs1	-0.289 ± 0.16	-0.161 ± 0.31	-0.173 ± 0.19	-0.199 ± 0.37	-0.0377 ± 0.1	0.0318 ± 0.098	0.0319 ± 0.15	-0.208 ± 0.4	-0.044 ± 0.049	0.108 ± 0.29	0.00159 ± 0.061	-0.149 ± 0.19
